Laboratory results taken from PubChem BioAssay (Tox21).
The inconclusive results got no clear call from the source; some entries with a clear call stand among them for comparison. For part of these data: Potencies of inconclusive entries are left out as doubtful fits. Activity calls are given as the source filed them. Unless noted, the call rests on the fitted dose curve; in most records, active means well fitted curve in the direction sought with a large enough effect in the repeat runs; inconclusive means weak or mixed curves; inactive means no such curve, though single readings can be large; an effect the other way counts as inactive or inconclusive.

Columns and labels:
[1] = biological target: Peroxisome proliferator-activated receptor gamma (Homo sapiens) (UniProt P37231); test: qHTS assay to identify small molecule agonists of the peroxisome proliferator-activated receptor gamma (PPARg) signaling pathway (AID 743094; active means well fitted activation curve with a large enough effect in the signal ratio in the repeat runs, not every such curve was filed as active; inconclusive means weak or mixed curves, or effect the other way; inactive means no such curve, though single readings can be large or run the other way; the % refers to the signal ratio; further: potency means the concentration at half of the fitted maximal effect); settings: HEK293H PPARg-UAS-bla, beta-lactamase FRET ratio, 17 h; activation: at 57 µM (top of the series) unless noted
UniProt P37231, sequence (P37231 whole entry, looked up): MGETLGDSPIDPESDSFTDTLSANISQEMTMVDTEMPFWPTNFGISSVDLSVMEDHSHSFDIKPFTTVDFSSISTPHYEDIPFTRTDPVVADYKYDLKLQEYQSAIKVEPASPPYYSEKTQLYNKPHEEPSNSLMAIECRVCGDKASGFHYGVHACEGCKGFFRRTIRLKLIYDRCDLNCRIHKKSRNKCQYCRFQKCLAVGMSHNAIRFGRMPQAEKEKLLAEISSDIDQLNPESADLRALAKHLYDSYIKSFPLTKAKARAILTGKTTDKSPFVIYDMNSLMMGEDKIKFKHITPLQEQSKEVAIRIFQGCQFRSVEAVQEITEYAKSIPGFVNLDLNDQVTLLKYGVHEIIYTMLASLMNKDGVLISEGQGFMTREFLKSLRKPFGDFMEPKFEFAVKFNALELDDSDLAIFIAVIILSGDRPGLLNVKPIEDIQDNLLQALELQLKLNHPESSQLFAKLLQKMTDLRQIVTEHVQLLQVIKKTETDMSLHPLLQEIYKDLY
Outline: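 Fluorescence-based beta-lactamase readout in HEK293H PPARg UAS-bla cells after 17 h compound exposure (37C) and 1 h B/G FRET substrate incubation at room temperature.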

[2] = qHTS assay to identify small molecule agonists of the sonic hedgehog signaling (Shh) pathway - cell viability counter screen (AID 1259366); further: nearly all actives have a fitted effect of over 50% in size; further: potency means the concentration at half of the fitted maximal effect
Outline: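 Cytotoxicity counter screen: CellTiter-Fluor reagent added after 23 h compound exposure, then 1 h at 37C and fluorescence read. Cells were 3T3 Gli1-Luc, seeded 2,000 per well and dosed 4 h post-plating.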

[3] = tested on: thyroid hormone receptor (rat, GH3 cells); test: qHTS assay to identify small molecule agonists of the thyroid receptor (TR) signaling pathway (AID 743066; calls by dose curve); settings: GH3.TRE-Luc cells, TR agonist luciferase, 24 h; activation: at 83.9 µM (top of the series) unless noted
[4] = qHTS assay to identify small molecule agonists of the androgen receptor (AR) signaling pathway in the presence of an antagonist - cell viability counter screen (AID 1259379);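 further: MDA-kb2 human breast cancer cells carrying an MMTV luciferase reporter; nearly all actives have a fitted effect of over 25% in size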
Outline: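 MDA-kb2 viability measured by CellTiter-Fluor fluorescence in the same wells as the luciferase signal; nilutamide 3.0uM final; 15-point compound titration; 16 hr at 37C.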

[5] = biological target: Progesterone receptor (Homo sapiens) (UniProt P06401); test: qHTS assay to identify small molecule agonists of the progesterone receptor (PR) signaling pathway (AID 1346784; calls by dose curve; further: nearly all actives have a fitted effect of over 30% in size); settings: PR-UAS-bla HEK293T, beta-lactamase FRET ratio, 16 h; activation: at 92.4 µM (top of the series) unless noted
UniProt P06401, sequence (P06401 whole entry, looked up): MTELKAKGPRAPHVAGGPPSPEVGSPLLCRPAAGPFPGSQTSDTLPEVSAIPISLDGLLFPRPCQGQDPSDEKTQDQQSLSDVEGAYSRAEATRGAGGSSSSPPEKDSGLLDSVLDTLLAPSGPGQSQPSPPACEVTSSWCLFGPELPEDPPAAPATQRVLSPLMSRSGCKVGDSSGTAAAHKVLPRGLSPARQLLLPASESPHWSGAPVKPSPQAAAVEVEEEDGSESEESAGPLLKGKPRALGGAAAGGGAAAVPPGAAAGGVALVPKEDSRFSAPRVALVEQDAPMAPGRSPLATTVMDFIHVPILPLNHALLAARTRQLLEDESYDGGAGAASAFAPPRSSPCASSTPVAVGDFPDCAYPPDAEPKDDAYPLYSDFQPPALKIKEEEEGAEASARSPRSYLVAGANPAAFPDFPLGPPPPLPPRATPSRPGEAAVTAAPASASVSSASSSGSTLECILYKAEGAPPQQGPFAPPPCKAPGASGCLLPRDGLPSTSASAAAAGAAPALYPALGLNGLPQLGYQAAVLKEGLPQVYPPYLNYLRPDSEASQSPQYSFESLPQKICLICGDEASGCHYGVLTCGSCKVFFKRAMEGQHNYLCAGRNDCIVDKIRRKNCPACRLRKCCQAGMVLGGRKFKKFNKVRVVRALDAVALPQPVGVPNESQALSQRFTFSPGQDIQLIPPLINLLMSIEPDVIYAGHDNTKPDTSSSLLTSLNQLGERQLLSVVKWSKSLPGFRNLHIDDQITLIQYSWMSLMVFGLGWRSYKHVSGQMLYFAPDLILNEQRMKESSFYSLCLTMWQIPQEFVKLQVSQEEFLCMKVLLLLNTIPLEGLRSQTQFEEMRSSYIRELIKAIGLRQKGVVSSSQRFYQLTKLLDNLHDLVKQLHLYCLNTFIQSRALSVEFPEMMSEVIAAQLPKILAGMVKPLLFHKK
Outline: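 Agonist qHTS: compounds pinned onto 3,000 PR-UAS-bla HEK 293T cells per well in charcoal-stripped serum medium, 16hr at 37C, then beta-lactamase activity measured by LiveBLAzer FRET fluorescence after 2 hours at room temperature.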

[6] = qHTS assay for small molecule agonists of the antioxidant response element (ARE) signaling pathway - cell viability counter screen (AID 743203; calls by dose curve; further: nearly all actives have a fitted effect of over 55% in size); settings: ARE-bla HepG2 viability, CellTiter-Glo luminescence, 16 h; viability change, negative = cytotoxic: at 73.3 µM (top of the series)
Outline: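 Parallel cytotoxicity read-out for the ARE-bla screen: HepG2 reporter cells, 16 hrs with compounds, then CellTiter-Glo luminescence.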

[7] = qHTS assay for small molecule activators of the heat shock response signaling pathway (AID 743210; active means well fitted activation curve with a large enough effect in the signal ratio in the repeat runs, with a control signal flat, not every such curve was filed as active; inconclusive means weak or mixed curves; the % refers to the signal ratio; further: potency means the concentration at half of the fitted maximal effect;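 on activation: HeLa cells with beta-lactamase reporter driven by heat shock elements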); settings: HeLa HSE-bla reporter, beta-lactamase ratio, 5 h; activation: at 62.6 µM (top of the series) unless noted
Outline: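 Activation of heat shock element-controlled beta-lactamase expression is measured in HeLa cells by LiveBLAzer FRET fluorescence, with compound exposure lasting 5 h at 37 C and substrate loading 2.5 h at room temperature.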

[8] = qHTS assay to identify small molecule agonists of the estrogen related receptor signaling pathway with the pleiotropic PPARgamma coactivator (PGC) from Tox21 10K library (AID 1224842); further: nearly all actives have a fitted effect of over 15% in size; further: potency means the concentration at half of the fitted maximal effect
Outline: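 PGC/ERR reporter cells (NTP line) were seeded 2,000 per well, rested 6 h at 37 C/5% CO2, then pin-dosed with compounds in DMSO for 18 h at 37 C; luciferase read by One-Glo luminescence after 30 min at room temperature.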

[9] = A CellTox Green Cytotoxicity Assay to monitor cytotoxicity in HepG2 cells - 24 hour (AID 1224878); further: nearly all actives have a fitted effect of over 45% in size; further: potency means the concentration at half of the fitted maximal effect
Outline: (§1)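 Measurements at 0, 8, 16, 24, 32 and 40 h of treatment captured CellTox Green fluorescence in HepG2 cells that had been co-plated with reagent and preincubated 5 h at 37 C/5% CO2.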

[10] = Caspase-3/7 induction in HepG2 cells by small molecules, qHTS cell viability counter screen (AID 1346981); further: nearly all actives have a fitted effect of over 30% in size; further: potency means the concentration at half of the fitted maximal effect
Outline: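 Treatment of HepG2 cells with DMSO-delivered compounds ran 16 hr at 37 C following a 5-hr pre-incubation of 2,000 cells/well. CellTiter-Fluor fluorescence, read after 1 hr, served as the viability measure in a qHTS format.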

[11] = qHTS assay to identify small molecule agonists of the TGF-beta/Smad signaling pathway (AID 1346859; active means well fitted activation curve with a large enough effect in the signal ratio in the repeat runs, not every such curve was filed as active; inconclusive means weak or mixed curves; the % refers to the signal ratio; further: potency means the concentration at half of the fitted maximal effect)
Outline: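 Fluorescence (ex 405 nm; em 460 and 530 nm) was read 2 h after LiveBLAzer FRET substrate at RT. The preceding compound treatment of overnight-plated SBE-bla HEK293T cells lasted 5 h at 37 C.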

[12] = qHTS RealTime-Glo MT Cell Viability Assay in HepG2 cells - 8 hour (AID 1224873); further: nearly all actives have a fitted effect of over 55% in size
Outline: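 HepG2 cells mixed with RealTime-Glo MT reagents (NanoLuc plus cell-permeant prosubstrate) were seeded at 600 cells/well, incubated 5 h at 37 C/5% CO2, then pinned with compounds in DMSO; nonlytic luminescence tracked viability during 40 h treatment.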

[13] = qHTS assay to identify aromatase inhibitors - cell viability counter screen (AID 743084); settings: MCF-7 aro ERE viability, CellTiter-Fluor, 24 h; activity change, negative = cytotoxicity: at 70.3 µM (top of the series) unless noted;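 further: cells stimulated with testosterone during compound exposure; nearly all actives have a fitted effect of over 55% in size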
[14] = A CellTox Green Cytotoxicity Assay to monitor cytotoxicity in HepG2 cells - 8 hour (AID 1224890); further: nearly all actives have a fitted effect of over 45% in size; further: potency means the concentration at half of the fitted maximal effect
Outline: as §1

[15] = qHTS assay to identify small molecule agonists of the hypoxia (HIF-1) signaling pathway (AID 1224846; active means well fitted activation curve with a large enough effect in the signal ratio in the repeat runs, not every such curve was filed as active; inconclusive means weak or mixed curves; the % refers to the signal ratio; further: potency means the concentration at half of the fitted maximal effect); settings: HRE-bla ME-180 cells, beta-lactamase ratio, 17 h; activation: at 76.8 µM (top of the series) unless noted
Outline: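 Reporter induction in HRE-bla ME-180 cells is taken as agonism: cells sit 5 hrs after plating, receive compounds or DMSO only, incubate 17 hrs at 37C under 5% CO2, and are loaded with CCF4-AM for beta-lactamase FRET measurement.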

[16] = biological target: Bile acid receptor (Homo sapiens) (UniProt Q96RI1); test: qHTS assay to identify small molecule agonists of the farnesoid-X-receptor (FXR) signaling pathway (AID 743220; active means well fitted activation curve with a large enough effect in the signal ratio in the repeat runs, not every such curve was filed as active; inconclusive means weak or mixed curves, or effect the other way; the % refers to the signal ratio; further: potency means the concentration at half of the fitted maximal effect); settings: HEK293T FXR-UAS-bla, beta-lactamase FRET ratio, 16 h; activation: at 62.6 µM (top of the series) unless noted
UniProt Q96RI1, sequence (Q96RI1 whole entry, looked up): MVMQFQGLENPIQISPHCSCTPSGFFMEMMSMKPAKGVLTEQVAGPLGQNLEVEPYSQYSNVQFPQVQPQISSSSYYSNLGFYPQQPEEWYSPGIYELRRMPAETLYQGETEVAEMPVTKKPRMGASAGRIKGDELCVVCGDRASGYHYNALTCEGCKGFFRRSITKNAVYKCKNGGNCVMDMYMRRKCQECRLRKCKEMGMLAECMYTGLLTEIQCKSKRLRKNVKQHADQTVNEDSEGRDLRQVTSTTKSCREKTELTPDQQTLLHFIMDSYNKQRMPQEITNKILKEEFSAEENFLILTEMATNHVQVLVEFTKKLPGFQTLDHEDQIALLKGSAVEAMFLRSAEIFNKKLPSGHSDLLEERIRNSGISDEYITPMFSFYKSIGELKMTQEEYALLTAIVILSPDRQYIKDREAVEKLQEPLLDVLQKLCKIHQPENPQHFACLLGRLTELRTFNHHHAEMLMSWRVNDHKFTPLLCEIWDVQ
Outline: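 FXR-UAS-bla HEK 293T cells carrying a UAS-driven beta-lactamase reporter were plated for 5 h at 37C/5% CO2, then exposed to DMSO-dissolved Tox21 10K compounds for 16 h at 37C. A LiveBLAzer B/G FRET substrate was loaded for 2 h at room temperature before fluorescence reading.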

[17] = A CellTox Green Cytotoxicity Assay to monitor cytotoxicity in HEK293 cells - 32 hour (AID 1224881); further: nearly all actives have a fitted effect of over 40% in size
Outline: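 Tox21 screen in HEK293: membrane-impermeant cyanine dye fluoresces on binding dead-cell DNA; compound pinned 5 h post-seeding, plates held at 37 C, signal read repeatedly through 40 h.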

[18] = biological target: Cytochrome P450 3A4 (Homo sapiens) (UniProt P08684); test: Cytochrome P450 Family 3 Subfamily A Member 4 (CYP3A4) small molecule antagonists: luciferase reporter qHTS assay (AID 1671201); further: nearly all actives have a fitted effect of over 50% in size; further: potency means the concentration at half of the fitted maximal effect
UniProt P08684, sequence (P08684 whole entry, looked up): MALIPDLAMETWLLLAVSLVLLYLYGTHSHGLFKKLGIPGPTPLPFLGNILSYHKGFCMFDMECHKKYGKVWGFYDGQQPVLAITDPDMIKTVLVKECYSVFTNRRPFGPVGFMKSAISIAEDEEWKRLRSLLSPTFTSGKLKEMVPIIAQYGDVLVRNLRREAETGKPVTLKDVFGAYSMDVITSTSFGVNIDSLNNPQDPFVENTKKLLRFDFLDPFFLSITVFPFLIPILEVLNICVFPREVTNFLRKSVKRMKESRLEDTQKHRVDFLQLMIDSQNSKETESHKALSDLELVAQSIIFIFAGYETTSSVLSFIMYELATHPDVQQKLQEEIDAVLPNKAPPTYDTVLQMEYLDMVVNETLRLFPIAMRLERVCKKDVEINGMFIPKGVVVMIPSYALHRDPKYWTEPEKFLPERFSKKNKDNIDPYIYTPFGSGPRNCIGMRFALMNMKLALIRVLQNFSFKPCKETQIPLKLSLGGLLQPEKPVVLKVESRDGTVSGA
Outline: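 Recombinant human CYP3A4 converts a proluciferin substrate to luciferin over 1 h at room temperature after NADPH regeneration solution is added (compound preincubated 10 min); detection reagent stops reaction, luminescence read 20 min later as relative units.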
On the % scale 0 is the no-effect control and ±100 the full control effect; tags describe the fitted curve by direction and shape or compound fluorescence and quenching.

CC1=NN(c2cccc(S(=O)(=O)O)c2)C(=O)C1
Potency [1]: inconclusive [activator, single point] | Potency [2]: inactive

CCCCCCC(O)CO (centres undefined)
activation [3]: inconclusive: 2.21% [phenotype inactive] | Potency [4]: inactive | Potency [5]: inactive

N#Cc1ccc(C(c2ccc(C#N)cc2)n2cncn2)cc1
Potency [5]: inactive

CNC(=O)c1c(I)c(NC(=O)CCCCC(=O)Nc2c(I)c(C(=O)O)c(I)c(C(=O)NC)c2I)c(I)c(C(=O)O)c1I
Potency [6]: inactive | Potency [7]: inactive | Potency [8]: inactive

O=C1OC(=O)C2CC=CCC12 (centres undefined)
Potency [9]: inactive | Potency [10]: inconclusive [cytotoxic, partial curve, poor fit]

CCCCCCCCCCCCCC=O
viability change, negative = cytotoxic [2]: inactive: 5.21% [at 8.39 µM] | activation [11]: inactive: -2.78% [at 6.97 µM]

CCCC=O
Potency [7]: inactive

Cc1ccccc1CCO
Potency [1]: inactive | Potency [8]: inactive | Potency [12]: inactive | Potency [4]: inactive | Potency [10]: inactive

CCCCCCCOC(C)=O
Potency [11]: inactive

CCCCCCCC(=O)N(C)C
Potency [13]: inactive | Potency [9]: inconclusive [activator, single point] | Potency [14]: inconclusive [activator, single point]

CCOC(=O)C1=NOC(c2ccccc2)(c2ccccc2)C1
Potency [1]: inactive

O=C(Cl)c1c(Cl)cccc1Cl
Potency [13]: inactive | Potency [1]: inactive | Potency [15]: inactive

CC(CN=Cc1ccccc1O)N=Cc1ccccc1O (centres undefined)
Potency [5]: inactive

COCCCOc1cc(C[C@@H](C[C@H](N)[C@@H](O)C[C@H](C(=O)NCC(C)(C)C(N)=O)C(C)C)C(C)C)ccc1OC
Potency [9]: inactive

N#Cc1c(F)cccc1F
Potency [16]: inactive

CCOC(=O)Cc1cccc2ccccc12
Potency [15]: inactive | Potency [9]: inconclusive [activator, single point] | Potency [14]: inconclusive [activator, single point]

CCC(C=O)CC
Potency [7]: inactive | Potency [16]: inactive | Potency [8]: inconclusive [activator, partial curve, poor fit] | Potency [2]: inconclusive [cytotoxic, single point] | activation [5]: inconclusive: 24.9%

Cc1cnccn1
Potency [2]: inactive

CCC1CCCCC1
Potency [17]: inactive

C1CCC2=NCCCN2CC1
Potency [7]: inactive

CCC(CC)CO
Potency [2]: inactive | Potency [18]: inactive

CCCCCCOC(=O)CCCCC(=O)OCCCCCC
Potency [6]: inactive | Potency [5]: inactive

O=C(Cl)c1ccccc1[N+](=O)[O-]
Potency [1]: inactive

CC(=O)S[C@H](C(=O)N[C@H]1Cc2ccccc2[C@H]2CCC[C@@H](C(=O)O)N2C1=O)C(C)C
activation [1]: inconclusive: 3.05%

CCCOC(=O)CCCCC(=O)OCCC
Potency [14]: inactive

CCc1ccc(C=O)cc1
Potency [8]: inactive

CCCCCCCCC(=O)O
Potency [11]: inconclusive [rising, partial curve, poor fit]

Cn1c(=O)c2c(ncn2CC(O)CO)n(C)c1=O (centres undefined)
Potency [16]: inconclusive [rising, partial curve] | Potency [9]: inconclusive [activator, single point]

C=Cc1ccc(C=C)cc1
Potency [18]: inconclusive [inhibitor, single point]

CC(C)(Oc1ccc(Cl)cc1)C(=O)OCCCOC(=O)C(C)(C)Oc1ccc(Cl)cc1
Potency [14]: inactive

C/C(=C(\CCO)SS/C(CCO)=C(\C)N(C=O)Cc1cnc(C)nc1N)N(C=O)Cc1cnc(C)nc1N
Potency [3]: inactive | Potency [9]: inactive | Potency [17]: inactive

CCCCCN(CCCCC)C(=O)C(CCC(=O)O)NC(=O)c1ccc(Cl)c(Cl)c1 (centres undefined)
Potency [7]: inconclusive [activator, single point] | Potency [15]: inconclusive [rising, partial curve]

Cc1cc(C)c(C)cc1C
activation [1]: inconclusive: -11.1% | Potency [10]: inconclusive [cytotoxic, single point]

C[C@@H]1CC[C@@]2(OC1)O[C@H]1C[C@H]3[C@@H]4CC[C@H]5C[C@@H](O)CC[C@]5(C)[C@H]4CC(=O)[C@]3(C)[C@H]1[C@@H]2C
activation [11]: inactive: -4.07% [at 6.97 µM]

CCCCOC(=O)[C@@H](C)Oc1ccc(Oc2ccc(C(F)(F)F)cn2)cc1
Potency [12]: inactive | Potency [18]: inconclusive [inhibitor, full curve, poor fit]

Cc1ccccn1
Potency [16]: inactive | Potency [15]: inactive

CC(=O)N[C@@H](CC(C)C)C(=O)O
Potency [4]: inactive

C=CCOC(=O)CCCCCCCC
Potency [7]: inactive | Potency [15]: inactive
